Data from article PMC4336329 (PLoS ONE, 2015).
Hit rate of the full screen: of about 310,000 compounds, about 2,200 (0.71%) showed an effect of 50% or more. Effects have a minus sign here. This is one part of the list.

target: human ether-à-go-go-related gene (hERG) potassium channel (human, UniProt Q12809); test: primary screen, population patch clamp on CHO cells stably expressing hERG
Sequence (Q12809 whole entry, looked up): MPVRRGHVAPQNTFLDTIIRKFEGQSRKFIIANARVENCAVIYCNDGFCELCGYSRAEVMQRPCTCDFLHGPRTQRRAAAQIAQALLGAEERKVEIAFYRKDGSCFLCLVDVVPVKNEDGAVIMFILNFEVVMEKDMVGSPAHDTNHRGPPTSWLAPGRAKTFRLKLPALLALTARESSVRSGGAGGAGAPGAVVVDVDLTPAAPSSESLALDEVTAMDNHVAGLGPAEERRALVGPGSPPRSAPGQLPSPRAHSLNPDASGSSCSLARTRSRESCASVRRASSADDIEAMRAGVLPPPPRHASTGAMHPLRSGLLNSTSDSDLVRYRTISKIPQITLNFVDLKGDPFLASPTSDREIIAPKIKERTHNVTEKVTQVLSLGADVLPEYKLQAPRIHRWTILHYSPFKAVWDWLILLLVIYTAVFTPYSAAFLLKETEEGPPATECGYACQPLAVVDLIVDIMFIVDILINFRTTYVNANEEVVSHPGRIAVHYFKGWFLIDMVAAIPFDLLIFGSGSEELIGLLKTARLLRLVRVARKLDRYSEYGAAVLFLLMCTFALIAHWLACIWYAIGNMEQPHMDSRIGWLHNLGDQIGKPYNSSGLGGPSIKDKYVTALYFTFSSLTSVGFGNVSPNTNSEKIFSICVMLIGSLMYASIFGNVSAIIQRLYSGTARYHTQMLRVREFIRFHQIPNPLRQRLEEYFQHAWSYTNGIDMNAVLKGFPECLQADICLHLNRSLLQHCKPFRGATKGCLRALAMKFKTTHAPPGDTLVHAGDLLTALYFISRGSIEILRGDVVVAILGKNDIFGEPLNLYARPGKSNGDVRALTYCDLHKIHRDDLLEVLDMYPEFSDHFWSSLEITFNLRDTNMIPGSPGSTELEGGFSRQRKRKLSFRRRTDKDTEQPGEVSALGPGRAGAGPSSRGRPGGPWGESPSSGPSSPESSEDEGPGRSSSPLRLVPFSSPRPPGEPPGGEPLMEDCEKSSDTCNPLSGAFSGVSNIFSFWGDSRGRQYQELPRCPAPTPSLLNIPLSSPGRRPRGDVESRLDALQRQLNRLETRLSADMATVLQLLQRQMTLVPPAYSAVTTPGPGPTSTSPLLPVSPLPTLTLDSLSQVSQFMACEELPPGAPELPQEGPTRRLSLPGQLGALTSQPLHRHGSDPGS

Row | SMILES | hERG current change (%, negative = inhibition) at 1uM [%]
1 | C[C@@H](C(=O)NCc1c(F)cccc1Cl)N1C(=O)N2CCc3c([nH]c4ccccc34)[C@@]2(C)C1=O | 4.12
2 | O=C(CC(Sc1n[nH]c(-c2ccccc2)n1)c1ccccc1)NCc1ccccc1 (stereo not drawn) | -0.228
3 | CCN(c1ccc(NC(=O)COC(=O)c2ccc3ccccc3n2)cc1)C(C)C | 10.3
4 | CC1(OC(=O)C2CCCC2)C(=O)C=C2C=C3CCCN3C=C2C1=O (stereo not drawn) | 8.08
5 | COc1ccccc1NS(=O)(=O)c1cc(NC(=O)CCc2nc3ccccc3c(=O)[nH]2)ccc1C | 4.12
6 | O=c1[nH][nH]c(=O)c2cc([N+](=O)[O-])ccc12 | 17.4
7 | CCOc1cc(NC(=S)NC)c(OCC)cc1NC(=O)c1ccc(OC)cc1 | 8.82
8 | CC(Oc1ccc([N+](=O)[O-])cc1)C(=O)NCCCN1CCOCC1 (stereo not drawn) | 10.3
9 | Cc1ccccc1Cn1cc(NC(=O)c2cc(C3CC3)on2)cn1 | 0.625
10 | Cc1ccc(C(=O)N2CCN(c3cc(=O)[nH]nc3-c3ccccc3)CC2)cc1 | -4.07
11 | Cc1ccccc1-c1nc(CN2CCCC(C(=O)NCc3cccnc3)C2)c(C)o1 (stereo not drawn) | -40.6
12 | CCc1nnc(NC(=O)CN2CCN(C3CCCCC3)CC2)s1.O=C(O)C(=O)O | 6.78
13 | COc1cccc(-c2cc(C(F)(F)F)nc(-n3cc(Cl)cn3)n2)c1 | -4.34
14 | OCCc1ccc(O)c(-n2nc3ccccc3n2)c1 | 0.961
15 | CCCCN(C(=O)c1cc(Cl)nc2ccccc12)c1c(N)n(CCCC)c(=O)[nH]c1=O | 9.59
16 | Cc1noc(NS(=O)(=O)c2ccc(NC(=O)c3ccc(OC(C)C)cc3)cc2)c1C | 14.8
17 | CCOC(=O)c1c(-c2ccc(OC)cc2)csc1NC(=O)CSc1nnc(C)c(=O)[nH]1 | 6.11
18 | COCCOCCOCCC(=O)NC1CC2CCC1(C)C2(C)C (stereo not drawn) | -1.82
19 | CCN1CCN(C(=O)C2CCC(=O)N(Cc3cccc(C(F)(F)F)c3)C2)CC1 (stereo not drawn) | 14.2
20 | O=c1[nH]nc(N2CCOCC2)c(=O)[nH]1 | 11
21 | Cc1cc(C)cc(OCC(=O)Nc2ccc3c(c2)OCCO3)c1 | 15.5
22 | Cc1ccc(S(=O)(=O)Nc2ccc(O)c(S(=O)(=O)c3ccc(C)cc3)c2)cc1 | 9.58

Row | SMILES | hERG current change (%, negative = inhibition) at 1uM [%]
23 | COc1cccc(NS(=O)(=O)c2ccc(-n3cccn3)cc2)c1 | 7.23
24 | COc1ccccc1C(=O)NCCC(=O)N1CCCCCCC1 | 13.3
25 | COc1ccc(-c2nc(-c3cccc(C)c3)no2)cc1OC | 13.8
26 | CC1(C)Cc2sc3c(=O)[nH]c(=S)[nH]c3c2CO1 | 12.7
27 | CN1CCN(C2Cc3cc(Cl)ccc3Sc3cc(F)ccc32)CC1.CS(=O)(=O)O (stereo not drawn) | 9.51
28 | COC(=O)c1ccc(C)c(NS(=O)(=O)c2ccc(C)c([N+](=O)[O-])c2)c1 | 3.14
29 | COc1ccc(CCNC(=O)C(=O)Nc2ccc3c(c2)OCO3)cc1OC | 5.95
30 | COc1ccc(-c2cc(C)no2)cc1S(=O)(=O)N1CCN(c2cccc(C)c2)C(C)C1 (stereo not drawn) | 17.2
31 | O=C(NCCc1cn2ccccc2n1)c1cc(COc2c(F)cccc2F)on1 | -35
32 | O=C(COc1ccc(Br)cc1Cl)NC1CCCCC1 | 16.5
33 | C=CCn1cc(C=C2C(=O)N(C)C(=O)N(C)C2=O)c2ccccc21 | 19.1
34 | CCc1cc2c(=O)c(-c3ccc4c(c3)OCCO4)coc2cc1OC(=O)c1ccco1 | -0.0889
35 | c1ccc(Cn2c(CNc3nc4ccccc4n3CCN3CCOCC3)nc3ccccc32)cc1 | -54.4
36 | N#CCSc1nnc2sc3ccccc3n12 | 12.4
37 | CCCS(=O)(=O)c1c(S(=O)(=O)CCC)c2cnccn2c1C(=O)c1ccc(OC)cc1 | 19.9
38 | Oc1ccccc1CNc1nccs1 | 23.6
39 | Cc1ccc(-n2c(SCC(=O)Nc3cc(S(=O)(=O)N4CCOCC4)ccc3Cl)nc3ccccc3c2=O)cc1 | 1.4
40 | O=C(CCCc1ccccc1)N1CCN(c2ccc([N+](=O)[O-])cc2)CC1 | -48.2
41 | Cc1cc(C)nc(N/N=C/C(Cl)=C/c2ccccc2)n1 | 0.291
42 | Cl.O=C(/C=C/c1ccco1)OCC1CCCN2CCCCC12 (stereo not drawn) | 7.41
43 | CC(=O)c1cccc(NC(=O)CC2SC(N3CCCCC3)=NC2=O)c1 (stereo not drawn) | 4.42
44 | CC(=O)N1CCN(S(=O)(=O)c2ccc(S(=O)(=O)NCC(C)C)cc2)CC1.O=C(O)C(=O)O | 4.85

Row | SMILES | hERG current change (%, negative = inhibition) at 1uM [%]
45 | Cl.Oc1ccc(Cl)cc1CNCc1ccc(F)cc1 | 1.14
46 | CCn1cc(C(=O)N2CCN(c3ccc(OC)cc3)CC2)c(=O)c2cc(S(=O)(=O)N3CCOCC3)ccc21 | 14.3
47 | C=CCSC1=C(C#N)C(c2ccccc2)CC(=O)N1 (stereo not drawn) | -0.625
48 | CCn1c(O)c(C=NCc2ccccc2)c(=O)[nH]c1=S | 8.76
49 | COc1nc(N2CCOCC2)nc(-n2cccc2)n1 | 7.96
50 | CCCCOc1ccc(C(=O)N2CCNC(=O)C2CC(=O)OC(C)C)cc1 (stereo not drawn) | 18.1
51 | COC(=O)CSc1cccc2c1C(=O)CC2c1ccccc1 (stereo not drawn) | 1.5
52 | O=C(N/N=C/c1[nH]c2ccccc2c1Cl)c1cccc(Br)c1 | 14.9
53 | O=C(COC(=O)C1CCN(S(=O)(=O)c2ccc3c(c2)OCCO3)CC1)Nc1ccccc1OC(F)F | 8.69
54 | CCOC(=O)C(NCc1ccccc1OC)(NC(=O)c1ccccc1)C(F)(F)F (stereo not drawn) | 3.19
55 | CC(=O)Nc1ccc(Oc2ccc3nc(C)[nH]c3c2)cc1 | 14.8
56 | COc1ccc(CCNC(=O)CCC2COc3ccccc3O2)cc1OC (stereo not drawn) | 4.55
57 | O=C(CSc1c(Cl)cccc1Cl)N1CCC(c2nc3ccccc3s2)CC1 | 6.94
58 | COc1ccc(-c2cccc(C3CC=CC4C3C(=O)N(Cc3ccccc3)C4c3ccc(OC)c(Cl)c3)c2)cc1 (stereo not drawn) | 19.3
59 | C=C1CCN([C@@H](Cc2ccccc2)C(=O)N2CCOCC2)S(=O)(=O)c2ccccc21 | 10.8
60 | O=C(Cn1c2ccccc2c(=O)c2ccccc21)Nc1ccccc1F | 2.2
61 | C[C@@H](C(=O)CC(=O)OC(C)(C)C)[C@@H](O)c1ccccc1 | 18.1
62 | COc1ccc(N2CCN(CCOc3ccc4c(C)cc(=O)oc4c3)CC2)cc1 | -37.8
63 | O=C1CC(=O)Nc2cc(S(=O)(=O)N3CCOc4ccccc43)ccc2N1 | 13
64 | Oc1ccc(Nc2nc(-c3cccnc3)cs2)cc1 | 12
65 | Cc1ccc(S(=O)(=O)N2CCN(c3cccc(C)c3)CC2)cc1 | 15.6
66 | O=C(c1ccco1)N1CCN(Cc2ccc(F)cc2Cl)CC1 | 2.37

Row | SMILES | hERG current change (%, negative = inhibition) at 1uM [%]
67 | O=C(O)C1CC=C(Cl)CC1C(=O)NCc1ccccc1 (stereo not drawn) | 11.2
68 | COc1cccc(NC(=O)CNC(=O)c2ccc(C)cc2)c1 | 14.3
69 | COc1cccc(CNC(=O)C2CCN(S(=O)(=O)c3c(C)nn(C)c3C)CC2)c1 | 5.89
70 | Cc1cccc(NC(=S)NNC(=O)c2csc3c2CCCC3)c1 | 14.3
71 | CCc1ccc(C(=O)COC(=O)c2cc([N+](=O)[O-])ccc2NCCO)cc1 | 4.59
72 | Cc1ccc(CSc2ccc3nnc(-c4ccccn4)n3n2)cc1 | -36.5
73 | CC1CCC(NC(=O)CN2CCC(n3nnc4cc(F)ccc43)CC2)CC1 (stereo not drawn) | -34.9
74 | O=C(c1ccc(Oc2ccccc2)cc1)C1CCCN(C(=O)c2cnccn2)C1 (stereo not drawn) | 4.18
75 | COc1ccc(CCC(=O)NCC(=O)OCc2ccccc2)cc1 | 13
76 | CCOC(=O)C1CCN(C(c2cc3ccc(C)cc3[nH]c2=O)c2nnnn2C2CCCCC2)CC1 (stereo not drawn) | -10.5
77 | COC(=O)[C@@]12CCCN1[C@H](c1ccc(-c3ccc(F)cc3)cc1)[C@H]1C(=O)N(C)C(=O)[C@H]12.O=C(O)C(F)(F)F | -0.74
78 | S=C(c1ccc(N2CCCC2)c(Br)c1)N1CCCCC1 | 9.49
79 | Cc1ccc(SCCC(=O)N(C)CC(=O)Nc2c(C)cccc2C)cc1 | -13.7
80 | CC(=O)c1sc(-c2ccc(Cl)cc2)cc1N | 13.5
81 | CCOC(=O)c1ccc(Oc2cn[nH]c2-c2ccc(OCC(=O)NN)cc2O)cc1 | 6.02
82 | CC(C(=O)Nc1ccc(O)c(C(=O)O)c1)N1C(=O)/C(=C/c2cccs2)SC1=S (stereo not drawn) | 13.4
83 | CN1CCN(c2nnc(-c3ccccc3)c(-c3ccccc3)n2)CC1 | 7.84
84 | Cc1cc(NC(=O)CCC(=O)N(CCc2ccccc2)C(C(=O)NC2CCCC2)c2ccco2)no1 (stereo not drawn) | -8.68
85 | COC(=O)Cn1c(C)c(C(C)=O)c(C(C)=O)c1C | 12.7
86 | OCCN(Cc1ccccc1)Cc1cccc(F)c1 | -2.85
87 | COc1cc(/C=C2/CC(C)OC2=O)c([N+](=O)[O-])cc1OC (stereo not drawn) | 13.1
